# Data reported in the supplement of paper PMC3724861.
# The other results are listed elsewhere or left out.
# Tested on: T1, Caupolican (Caup) homeodomain DNA-binding domain
# T1 sequence: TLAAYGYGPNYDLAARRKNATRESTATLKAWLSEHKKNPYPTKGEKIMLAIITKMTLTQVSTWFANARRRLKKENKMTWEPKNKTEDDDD
# Test: PBM E-score (8-mer, recovered from the published 9-mer minima) (E-score (dimensionless, -0.5 to 0.5)); Drosophila protein; higher = stronger relative binding preference, active = 0.31 or more
# Method in brief: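 Caup's homeodomain DNA-binding domain (residues 214-303) was made by in vitro transcription and translation and applied at 100 nM to custom-designed protein binding microarrays. Each value is an enrichment score that gives relative binding preference for a short DNA word, with higher meaning stronger. The 8-mer values were recovered from published 9-mer scores, each of which was the minimum of its two constituent 8-mer scores. A cutoff of 0.31 marks candidate sites.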
row,Sequence,PBM E-score
1,CCAGTACC,inactive: -0.0496
2,GAGTAGTA,inactive: 0.0893
3,ACTATTTA,inactive: 0.187
4,AATCCGCG,inactive: -0.0297
5,CGATCGAA,inactive: -0.0833
6,ATGGCGCA,inactive: -0.0991
7,ACACTGAT,inactive: 0.172
8,GTGTTTGA,inactive: 0.299
9,CCCAGTTC,≥ -0.0436
10,GGAGCCGA,inactive: -0.213
11,AAGTATTG,inactive: 0.145
12,TGTCCACA,≥ 0.222
13,TATTTGCA,inactive: 0.087
14,CAGCACTA,inactive: -0.0158
15,AGTATTCC,inactive: 0.0265
16,GCTCCGAA,inactive: -0.0208
17,AGGAAGCC,inactive: -0.173
18,CGACCCAC,inactive: -0.123
19,AATCTTCA,≥ 0.0619
20,GTGGAGCA,inactive: -0.109
21,AACAAGTG,active: 0.334
22,AAGGGTAC,inactive: 0.109
23,AGCCTTAA,inactive: -0.125
24,AGGAGATC,inactive: -0.0431
25,GAACGGAC,inactive: -0.0243

row,Sequence,PBM E-score
1,AAGCATTG,inactive: 0.102
2,AAAAATGC,inactive: 0.0185
3,GGTTAGCA,inactive: 0.00269
4,GGCATCCA,inactive: -0.0286
5,CCGAGGTA,inactive: -0.0104
6,GAATTCAA,inactive: 0.0935
7,GAAGCTTC,inactive: -0.218
8,CTATTCGA,inactive: 0.0836
9,CTTGCCGC,inactive: -0.156
10,CAAAGTCA,inactive: -0.0139
11,AGATGCAC,inactive: -0.00186
12,GCTAGGGA,inactive: -0.161
13,CAACTGCC,inactive: -0.0471
14,GGCCTAAC,inactive: -0.0106
15,CCATGATC,inactive: 0.0355
16,ACCTGGCG,inactive: -0.147
17,TCAGTGAA,inactive: -0.0554
18,ATCCACCC,inactive: -0.143
19,CCCTAAGA,inactive: -0.161
20,ACTGATTG,inactive: 0.109
21,AGGGAACG,inactive: -0.117
22,AACCTATT,inactive: 0.0185
23,CTAAAGAC,inactive: 0.0413
24,AGATATAA,inactive: 0.072
25,ATCGTTCA,inactive: 0.115

row,Sequence,PBM E-score
1,CTTTTTCA,inactive: -0.0193
2,CCAAGACC,inactive: -0.065
3,CGGGGAAG,inactive: -0.18
4,AGCTATAA,inactive: 0.0708
5,CAGCGAGA,inactive: -0.0994
6,CCACGTAC,inactive: 0.0892
7,ATGAGCAC,inactive: 0.0154
8,ACGTGAAG,inactive: -0.0437
9,AAAAATCC,inactive: -0.00815
10,ATTCTGGC,inactive: -0.119
11,AAAGAAAC,inactive: 0.0567
12,GATCCAGC,inactive: -0.116
13,AACCAAAG,inactive: 0.122
14,CCACGGCC,inactive: -0.294
15,CTCAAATC,inactive: -0.0105
16,AAGAGACA,inactive: 0.124
17,ACCGCCCA,inactive: -0.202
18,AACAGGGC,inactive: 0.0462
19,GCGTCTCA,inactive: -0.157
20,GCGAACAA,inactive: 0.212
21,CCAGGGGG,inactive: -0.346
22,CCGGGGTA,inactive: -0.115
23,ACTGGCCC,inactive: -0.195
24,AATGTGGG,inactive: 0.0397
25,ACTGTGAG,inactive: -0.0353

row,Sequence,PBM E-score
1,GCTTACCA,inactive: 0.0275
2,CTATCACA,inactive: 0.14
3,TGATATCA,≥ 0.162
4,ATAGGATC,inactive: 0.0862
5,ATTATGCG,inactive: 0.104
6,TTACCGAA,inactive: 0.0704
7,ACCTACTA,inactive: 0.0891
8,CAACATAG,inactive: 0.177
9,CTTTTTTA,inactive: -0.063
10,CAAACCTA,inactive: -0.00936
11,AGCATTCC,inactive: -0.101
12,GGACGTGA,inactive: -0.0239
13,ACCTCTGC,inactive: -0.124
14,AGTCTGTG,inactive: 0.0461
15,AGTACCAG,inactive: 0.0977
16,AATGCTTC,inactive: 0.0255
17,GCGATGTA,inactive: 0.268
18,AATCAGTA,inactive: 0.2
19,GTTAGAAC,inactive: 0.059
20,AGCTCGGG,inactive: -0.181
21,ATTACGTA,inactive: 0.173
22,GAGTAAAC,inactive: 0.0324
23,GTGGTTCA,inactive: 0.106
24,ACCTTGAT,inactive: -0.0301
25,TGATGTAA,active: 0.36

row,Sequence,PBM E-score
1,AATGAGAC,inactive: -0.0274
2,TCAACCAA,inactive: 0.0466
3,AAGCTGCG,inactive: -0.143
4,CGGGCATA,inactive: -0.0617
5,CGTTTGGA,inactive: -0.054
6,CTTTGGCC,inactive: -0.118
7,TAACCGGA,inactive: -0.014
8,CACTACAC,inactive: 0.206
9,AACAAATA,inactive: 0.287
10,AAGTTGTG,inactive: 0.106
11,CACACGAC,inactive: 0.0592
12,CGGCATAC,inactive: -0.0519
13,AGGCTTAC,inactive: -0.043
14,AAAAACGT,inactive: 0.0448
15,GCTAGGTA,inactive: -0.00982
16,CCGGACTA,inactive: -0.0979
17,TCCCACGA,≥ -0.0756
18,AGATGAAT,inactive: 0.0945
19,TAAACGCA,inactive: 0.034
20,AGGGTAAG,inactive: -0.0682
21,TCAATTAA,inactive: 0.083
22,ACTCTTGA,inactive: -0.024
23,GGGCATAA,inactive: -0.0673
24,GAACGTAC,inactive: 0.0845
25,CTCTTTAA,inactive: -0.0278

row,Sequence,PBM E-score
1,ATAACTCA,≥ 0.0974
2,ACGCATCG,inactive: 0.00845
3,ACCACATA,inactive: 0.134
4,CATACGTA,inactive: 0.196
5,GTGATCTA,inactive: 0.0496
6,GCTCCCCC,inactive: -0.358
7,CCAAAAAA,inactive: 0.0343
8,AGGCTGAT,≥ 0.0181
9,GGAGCGAC,inactive: -0.0697
10,GAACTCTA,inactive: 0.0471
11,CGTTGGGC,inactive: -0.138
12,AACGCTGT,inactive: 0.0847
13,AACGTCAG,inactive: 0.0498
14,CATCGTTC,inactive: 0.00229
15,AGCCGCAC,inactive: -0.17
16,ATTGAACC,inactive: 0.00538
17,CAAATGCG,inactive: 0.0193
18,ATTAGGGC,inactive: -0.065
19,AATATCCC,inactive: 0.0141
20,GAAGGAAA,inactive: -0.0842
21,TCCTACCA,inactive: -0.0866
22,ATTCCTTG,inactive: 0.058
23,GCAGTTAA,inactive: -0.0286
24,GGGTTCGA,inactive: -0.0924
25,ACATCTAC,inactive: 0.296

row,Sequence,PBM E-score
1,GGGTCAAC,inactive: -0.0293
2,TGAGGGCA,inactive: -0.108
3,ATTAGATA,≥ 0.212
4,AGCCTCCA,inactive: -0.239
5,CAACCAAC,inactive: 0.0468
6,TTCGGAAA,inactive: -0.0918
7,CCAGGCAC,inactive: -0.0562
8,CCCTCTCG,inactive: -0.245
9,CTCATTGC,inactive: 0.0423
10,GAATTTCA,inactive: -0.00942
11,GGTACAAC,active: 0.32
12,CTCTGCGC,inactive: -0.141
13,AGTATTGC,inactive: 0.12
14,AGGACGGG,inactive: -0.116
15,TAGCGTAA,inactive: 0.0187
16,CGCCCTTC,inactive: -0.183
17,CCTGACGA,inactive: -0.0143
18,CTAGCCTA,inactive: -0.043
19,GCTAAAAC,inactive: -9e-05
20,CGCCTCAC,inactive: -0.0822
21,CCCGCTAG,inactive: -0.241
22,CAGAGTTC,inactive: -0.073
23,GAGATAGC,inactive: -0.0575
24,AGTGCCGA,inactive: -0.154
25,GGTGTCAA,inactive: 0.197

row,Sequence,PBM E-score
1,GAACTTCA,inactive: -0.0896
2,CTAATTAA,inactive: 0.155
3,GGACGGCC,inactive: -0.274
4,CACCGGAG,inactive: -0.163
5,AGGGGAGC,inactive: -0.27
6,ACAAACCC,inactive: 0.122
7,AACAATAT,≥ 0.296
8,CGGTATAG,inactive: 0.00586
9,CATCCTTC,inactive: -0.0147
10,TACGCCCA,inactive: -0.0212
11,AAACGGTG,inactive: 0.0578
12,AAACAATT,inactive: 0.176
13,CTTAATGC,inactive: -0.00154
14,CCGGATTC,inactive: -0.0277
15,CTCCTACA,inactive: 0.107
16,CCCCTCAG,inactive: -0.155
17,AACCTGGA,inactive: 0.0374
18,CATACAAC,inactive: 0.27
19,TGCTACAA,inactive: 0.251
20,AGCTTCCC,inactive: -0.188
21,AACCACTT,inactive: 0.118
22,TGTAGAAA,inactive: 0.249
23,TAGGTAAA,inactive: 0.0307
24,CGGGTCGC,inactive: -0.249
25,TCTCATAA,inactive: 0.0556

row,Sequence,PBM E-score
1,CAATTTAG,inactive: 0.0674
2,AAGTCTAA,inactive: 0.0476
3,ACATCTCC,inactive: 0.197
4,ATTCGCGG,inactive: -0.14
5,CCTTCGCC,inactive: -0.162
6,ATGCTCAC,inactive: 0.0542
7,ATTCCAAG,inactive: 0.0121
8,GGATGCTA,inactive: -0.0509
9,ATGTCCCA,inactive: 0.0983
10,AGACACTA,inactive: 0.0692
11,GATAGGGA,inactive: -0.109
12,ACCCAAAT,≥ 0.0832
13,CCGCTACC,inactive: -0.0854
14,AATCATAA,inactive: 0.163
15,ATGTGGTC,inactive: 0.0985
16,TAAGTGCA,inactive: 0.0623
17,ACTCCTGA,inactive: -0.0693
18,AACCACGT,inactive: 0.143
19,GAGAAAGC,inactive: -0.0804
20,CCAGTTGA,inactive: -0.0244
21,GATAGATC,inactive: 0.0307
22,ACCCCGCT,inactive: -0.214
23,CACTCGGA,inactive: -0.02
24,TACCTGCA,inactive: 0.0348
